# From PubChem BioAssay AID485294 (National Center for Advancing Translational Sciences (NCATS), 2010)
# Screen size: about 370,000 compounds; about 150 (0.041%) were called active. The inconclusive results got no clear call from the source; some entries with a clear call stand among them for comparison. Calls follow the shape of the dose curve; as a rule, active = well fitted inhibition curve with a large enough effect; inconclusive = small, poorly fitted or top-dose-only effect; inactive = flat fitted curve, though single readings scatter. No potency is given beside an inconclusive call; the fits are too rough.
# Target: Beta-lactamase (Escherichia coli (strain K12)) (UniProt P00811)
# UniProt P00811, sequence (P00811 whole entry, looked up): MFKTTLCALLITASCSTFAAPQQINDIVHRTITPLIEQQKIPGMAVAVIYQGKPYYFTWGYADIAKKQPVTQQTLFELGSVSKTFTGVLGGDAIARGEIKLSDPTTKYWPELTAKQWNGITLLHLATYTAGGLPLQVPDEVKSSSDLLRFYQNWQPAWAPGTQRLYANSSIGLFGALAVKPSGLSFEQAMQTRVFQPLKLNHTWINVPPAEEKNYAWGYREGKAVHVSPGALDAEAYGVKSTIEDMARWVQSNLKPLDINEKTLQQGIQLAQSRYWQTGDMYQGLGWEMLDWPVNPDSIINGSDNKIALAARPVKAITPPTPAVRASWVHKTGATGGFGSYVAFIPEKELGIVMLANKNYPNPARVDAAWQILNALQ
# Assay: qHTS Inhibitors of AmpC Beta-Lactamase (assay with detergent); also: nearly all actives have a fitted effect of over 25% in size;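 as to activity change, negative = inhibition: 0% = no-compound wells and -100% = no-enzyme wells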
# Details: AmpC hydrolysis of nitrocefin, absorbance 480 nm, 0.01% Triton; activity change, negative = inhibition: at 114 µM (top of the series)
# Summary of the method: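 AmpC (5.3 nM in the dispensed reagent) in 20 mM phosphate pH 7.0 with 0.01% (detergent screen) or 0.0001% Triton X-100 was preincubated with compounds for 15 min at room temperature. Nitrocefin was then added from an 800 uM solution, and hydrolysis was followed at 480 nm.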
# Potency is read from the fitted curve at half-maximal effect; tags tell the direction and shape of the fitted curve.
Structure (SMILES),"activity change, negative = inhibition",Potency
CCOc1ccc(OCC)c(NC(=O)c2cc(S(=O)(=O)N3CCCC3)cn2C)c1,inactive: 27.4%,
S=C(NCc1ccco1)Nc1ccc(Oc2ccc(Cl)cc2)cc1,inactive: 0.24%,
NC(=O)c1cnn2c(C(F)(F)F)cc(-c3ccc(F)cc3)nc12,,"inconclusive [inhibitor, full curve, poor fit]"
CCn1c(Cc2ccccc2)nnc1SCc1ccc([N+](=O)[O-])cc1,,"inconclusive [inhibitor, partial curve, poor fit]"
O=C(Nc1cc(Cl)ccc1-n1cncn1)c1ccc(Br)o1,,"inconclusive [inhibitor, partial curve]"
CCCSc1nn2c(=O)c3ccccc3nc2s1,inactive: -6.63%,
O=C(OCc1nc2ccccc2[n+]([O-])c1C(=O)c1ccccc1)c1cccs1,,"inconclusive [inhibitor, full curve, poor fit]"
OCCc1ccc(O)c(-n2nc3ccccc3n2)c1,,"inconclusive [inhibitor, full curve]"
CC(C)N(Cc1ccccc1)C(=S)Nc1cccnc1,,"inconclusive [inhibitor, single point]"
Cc1cc(Cl)ccc1NC(=O)CN1C(=O)NC2(CCCC2)C1=O,,"inconclusive [inhibitor, single point]"
O=C(O)c1ccc2oc(=O)c(S(=O)(=O)c3ccc(F)cc3)cc2c1,inactive: -4.74%,
Cc1nc(CNS(=O)(=O)c2ccccc2F)cs1,,"inconclusive [inhibitor, full curve, poor fit]"
C/C(=N\NC(=O)c1c(Cl)c(C)nn1C)c1ccc(NC(=O)COc2ccc(Cl)cc2C)cc1,,"inconclusive [inhibitor, full curve]"
Cc1ccc(NC2=C(Cl)C(=O)OC2OC(=O)c2ccco2)cc1 (stereo not drawn),,"inconclusive [inhibitor, full curve]"
CCOC(CNC(=O)c1ccc2nc(N3CCC(C)CC3)sc2c1)OCC,inactive: 0.617%,
Cc1ccc(CCNC(=O)C2CCN(S(=O)(=O)c3ccc4nc5c(c(C(=O)O)c4c3)CCCC5)CC2)cc1,,"inconclusive [inhibitor, partial curve]"
COc1cc2c(cc1NC(=O)C(C)N1CCN(S(=O)(=O)c3ccccc3[N+](=O)[O-])CC1)oc1ccccc12 (stereo not drawn),,"inconclusive [inhibitor, single point]"
COc1cc(NS(C)(=O)=O)c(OC)cc1NC(=O)c1cccc(F)c1,,"inconclusive [inhibitor, partial curve, poor fit]"
CC(C)CNC(=S)NC(=O)c1ccc(Cl)cc1Cl,inactive: 5.04%,
O=C(c1c[nH]c(C(=O)N2CCN(Cc3ccccc3)CC2)c1)C1CCCCC1,,"inconclusive [inhibitor, full curve, poor fit]"
CS(=O)(=O)N(C(=O)NC(=O)NC12CC3CC(CC(C3)C1)C2)C1CCCCC1,inactive: 0.588%,
CCOC(=O)C1=C(c2ccccc2)ON(C)C1c1ccccc1 (stereo not drawn),,"inconclusive [inhibitor, partial curve]"
CCNC(=S)Nc1ccc(N(c2ccccc2)C(C)C)cc1,inactive: -13%,
O=C(N/N=C/C(Cl)=C/c1ccc([N+](=O)[O-])cc1)C(=O)Nc1ccccc1C(=O)O,inactive: 0.515%,
O=C(c1ccc([N+](=O)[O-])cc1[N+](=O)[O-])N1CCCC1,inactive: 1.42%,

Structure (SMILES),"activity change, negative = inhibition",Potency
Cc1ccccc1NC(=S)N(C)Cc1cccs1,,"inconclusive [inhibitor, full curve, poor fit]"
O=P1(Nc2ccc(F)cc2)COc2ccccc2OC1,,"inconclusive [inhibitor, partial curve, poor fit]"
COc1ccc(Cl)c2sc(N3CCN(C(=O)c4ccco4)CC3)nc12,,"inconclusive [inhibitor, partial curve]"
CCOCc1nnc(NC(=O)c2cc(OC)cc(OC)c2)s1,,"inconclusive [inhibitor, full curve, poor fit]"
COc1ccc(C2CC(=O)Nc3cc(C)c(C)cc32)c(OC)c1OC (stereo not drawn),,"inconclusive [inhibitor, full curve, poor fit]"
CC(C)CN(C)C(=O)CCc1nnc(Cc2ccc(-c3ccccc3)cc2)o1,inactive: -3.35%,
Cc1cc(C)n2nc(C(=O)OCC(=O)Nc3ccc4c(c3)OCCO4)nc2n1,,"inconclusive [inhibitor, full curve, poor fit]"
CC1CCN(C(=O)CSc2nc(=O)n3ccccc3n2)CC1,,"inconclusive [inhibitor, full curve, poor fit]"
Cc1cc(C(=O)COc2ccc(-c3nnco3)cc2)c(C)n1Cc1ccccc1,,"inconclusive [inhibitor, partial curve]"
COc1ccc(N2C(=O)CC(Sc3nc4ccccc4s3)C2=O)cc1OC (stereo not drawn),inactive: 7.31%,
COc1ccc(C(=O)NCc2csc(-c3cccs3)n2)cc1,inactive: 2.62%,
COc1ccccc1CNC(=O)C1CCCN(c2cnccn2)C1 (stereo not drawn),,"inconclusive [inhibitor, single point]"
COc1ccc(C2CC(c3ccc(Br)cc3)=NN2C(=O)CSC2=NCCS2)cc1 (stereo not drawn),,"inconclusive [inhibitor, single point]"
NS(=O)(=O)c1ccc(NC(=O)COc2ccc(S(=O)(=O)N3CCCC3)cc2)cc1,inactive: 6.41%,
CCOC(=O)N1CCN(c2ccc(F)cc2[N+](=O)[O-])CC1,,"inconclusive [inhibitor, full curve, poor fit]"
Cc1ccc(NC(=O)COC(=O)c2cc(Cl)cc(Cl)c2)c(Br)c1,inactive: -4.98%,
Cn1c(CC(=O)NN)c(Sc2ccccc2)c2ccccc21,,"inconclusive [inhibitor, partial curve]"
CCN(CC)C(=O)CSc1nc2c(sc(=S)n2CC)c(=O)n1-c1ccccc1,,"inconclusive [inhibitor, full curve, poor fit]"
CC(=O)C1C(=O)C=C(c2ccco2)CC1c1ccccc1 (stereo not drawn),,"inconclusive [inhibitor, partial curve, poor fit]"
Nc1nnnn1/N=C/c1cccc(Oc2ccccc2)c1,,"inconclusive [inhibitor, full curve]"
CCc1ccccc1N1CC(c2nc3ccccc3n2CCCOc2ccc(Cl)cc2)CC1=O (stereo not drawn),inactive: -6.07%,
COCCCN(C(=O)c1ccco1)c1nc(-c2ccc(OC)cc2)cs1,inactive: -2.33%,
O=C(Nc1ccc2oc(-c3cc(Br)ccc3Cl)nc2c1)c1cc2ccccc2o1,inactive: -0.151%,
CC(=O)c1cc(F)c(N2CCN(C(=O)c3ccco3)CC2)cc1C,,"inconclusive [inhibitor, single point]"
O=C(CN1C(=O)NC2(CCCCC2)C1=O)N(Cc1ccco1)Cc1cccs1,,"inconclusive [inhibitor, full curve, poor fit]"

Structure (SMILES),"activity change, negative = inhibition",Potency
O=C(NCc1cccs1)c1csc2ccccc12,inactive: -0.791%,
Cc1nc(CCl)cc(=O)[nH]1,inactive: 0.9%,
Cc1cccc(C)c1NC(=O)COc1ccc2c(C)c(Cc3ccccc3)c(=O)oc2c1C,,"inconclusive [inhibitor, full curve]"
CC(C)CN(C(=O)CN1CCCCCC1)c1c(N)n(CC(C)C)c(=O)[nH]c1=O,inactive: 3.42%,
Cc1cc(C)c(S(=O)(=O)NCCn2ccc3ccccc32)c(C)c1,,"inconclusive [inhibitor, full curve, poor fit]"
O=C(c1cnn2c(C(F)(F)F)cc(-c3ccc4c(c3)OCO4)nc12)N1CCCCC1,inactive: -14.9%,
Cc1c(C(=O)Cc2ccccc2)n(C)c2ccccc12,inactive: -9.52%,
NS(=O)(=O)c1cc(C(=O)NC2CCSc3ccccc32)ccc1Cl (stereo not drawn),,"inconclusive [inhibitor, partial curve]"
COc1cc(-c2cc3n(C)c(C)c(CCC(=O)O)c(=O)n3n2)cc(OC)c1OC,inactive: -1.7%,
COc1cccc(CNC(=O)COc2cc3c(c4oc(=O)cc(C)c24)CCC(C)(C)O3)c1,,"inconclusive [inhibitor, full curve]"
COc1ccc(/C=C/C(=O)N2CCN(c3ccccn3)CC2)c2ccccc12,,"inconclusive [inhibitor, full curve, poor fit]"
COC(=O)c1sc(N)c(C(=O)OC)c1CSc1nnnn1C,inactive: -17.2%,
O=c1cc(CN2CCN(c3ccccc3)CC2)c2cc(O)c(-c3ccccc3)cc2o1,inactive: -7.94%,
CCOC(=O)COn1c(=O)c[n+]([O-])c2ccccc21,,"inconclusive [inhibitor, full curve, poor fit]"
Cc1ccc(N/C=C/C(=O)c2cccs2)cc1C,inactive: -9.89%,
Cc1ccc(N2NC(=O)/C(=C/c3ccc(-c4ccc(Cl)c(C(=O)O)c4)o3)C2=O)cc1C,inactive: -1%,
CCCOc1ccc(C(O)C(CN2CCOCC2)c2ccccc2)cc1 (stereo not drawn),inactive: -10.9%,
Cc1cccc(OCc2nc(CC(=O)Nc3ccc(C)c(C)c3)cs2)c1,inactive: 11.3%,
CC(C)OCP(=O)(c1ccccc1)c1ccccc1,,"inconclusive [inhibitor, full curve]"
CCOc1ccccc1NC(=O)c1cnccn1,,"inconclusive [inhibitor, full curve, poor fit]"
O=C(Oc1cccc(C(=S)N2CCOCC2)c1)c1ccccc1,,"inconclusive [inhibitor, single point]"
O=C(CCn1c(=O)oc2ccccc21)NCCN1CCc2ccccc2C1,,"inconclusive [inhibitor, partial curve]"
O=C(Cn1c(NCCO)nc2ccccc21)NCC(F)(F)F,,"inconclusive [inhibitor, single point]"
